Experimental data reported in PubChem BioAssay AID624417 (National Center for Advancing Translational Sciences (NCATS), 2012).
In all, about 410,000 compounds went through this assay and about 6,400 (1.6%) were called active. The inconclusive results got no clear call from the source; some entries with a clear call stand among them for comparison. The call rests on the fitted dose curve; in most records, active means well fitted inhibition curve with a large enough effect; inconclusive means small, poorly fitted or top-dose-only effect; inactive means no such curve, though single readings can be large or run the other way. Potencies of inconclusive entries are left out as doubtful fits.

molecular target: Glucagon-like peptide 1 receptor (Homo sapiens) (UniProt P43220); experiment: qHTS of GLP-1 Receptor Inverse Agonists (Inhibition Mode); details: HEK293 GLP-1R CRE-luciferase, luminescence, 24 h, GLP-1R form is constitutively active; activity change, negative = inhibition: at 38.3 µM (top of the series) unless noted; further: nearly all actives have a fitted effect of over 55% in size
Chain of UniProt P43220 (P43220 whole entry, looked up): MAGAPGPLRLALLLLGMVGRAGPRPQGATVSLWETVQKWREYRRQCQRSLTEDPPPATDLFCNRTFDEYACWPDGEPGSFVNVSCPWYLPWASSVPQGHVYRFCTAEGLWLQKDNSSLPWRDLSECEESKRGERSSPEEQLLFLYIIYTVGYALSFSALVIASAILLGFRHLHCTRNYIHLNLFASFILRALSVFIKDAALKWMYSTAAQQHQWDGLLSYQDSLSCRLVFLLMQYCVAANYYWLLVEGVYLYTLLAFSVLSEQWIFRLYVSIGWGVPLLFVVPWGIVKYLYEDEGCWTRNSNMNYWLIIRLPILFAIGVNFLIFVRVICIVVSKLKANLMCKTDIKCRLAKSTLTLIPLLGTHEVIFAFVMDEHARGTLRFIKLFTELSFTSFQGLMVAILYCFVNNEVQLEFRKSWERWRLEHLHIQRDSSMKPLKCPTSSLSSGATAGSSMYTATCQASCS
How it was run: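 HEK293 cells stably co-expressing constitutively active GLP-1R and a cAMP-responsive luciferase reporter were seeded in DMEM with 10% Nu serum, given compounds after 12 h, and incubated 24 h at 37 deg C. Luminescence was then read.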
On the % scale 0 is the no-effect control and ±100 the full control effect; potency means the concentration at half of the fitted maximal effect; tags describe the fitted curve by direction and shape.

Which Potency does the source give for `COc1ccc(C(C)=O)cc1COC(=O)c1c(C)nn(-c2ccccc2)c1C` here?
The Potency was inconclusive [inhibitor, single point].

How did the Potency turn out when `COc1ccc(NC(=O)c2ccc(Cc3ccc(C)cc3)o2)cc1` was run?
Its Potency is inconclusive [inhibitor, single point].

For `COc1c2c(cc3c1C(CC(O)Cc1ccccc1)N(C)CC3)OCO2` (centres undefined), which Potency is on record?
Its Potency is inconclusive [inhibitor, partial curve, poor fit].

For `CCc1c(C(=O)Nc2cc(C)cc(C)c2)[nH]c(C)c1C(C)=O`, which Potency is on record?
The Potency was inconclusive [inhibitor, single point].

Which Potency does the source give for `O=C(Nc1ccc(F)c(F)c1)C(c1ccccc1)N1Cc2ccccc2C1=O` (centres undefined) here?
The Potency was inconclusive [inhibitor, partial curve, poor fit].

For `CCC(C)[C@H]1CNC(=S)N1CCc1cccc2ccccc12` (some centres undefined), which Potency is on record?
Its Potency is inconclusive [inhibitor, single point].

`Cn1c(O)c(/C=N/NC(=O)c2cc3ccccc3cc2O)c2ccccc21` was tested. Which Potency did it give?
Its Potency is inconclusive [inhibitor, partial curve, poor fit].

For `Cc1nc2c(OCC(=O)C(C)(C)C)cccn2c1N(C)Cc1cccs1`, which Potency is on record?
The Potency was inconclusive [inhibitor, partial curve].

`Cc1cnc(NC(=O)CSc2ncc(-c3ccccc3)n2Cc2ccco2)s1` was tested. Which Potency did it give?
Its Potency is inconclusive [inhibitor, single point].

Which Potency does the source give for `CCN1CCc2c(OCC(=O)N3N=C(c4cccs4)CC3c3ccc(F)cc3)cccc2C1=O` (centres undefined) here?
The Potency was inconclusive [inhibitor, partial curve, poor fit].

For `COc1ccc(-c2cc(C3CCN(c4cc(Cl)nc(N)n4)CC3)[nH]n2)cc1`, which “activity change, negative = inhibition” value is on record?
Its value is inactive: -5.36%.

For `O=C(O)c1cccc(OCc2ccccc2Cl)c1`, which Potency is on record?
Its Potency is inconclusive [inhibitor, partial curve, poor fit].

For `O=C(NCc1ccco1)/C(=C/C=C/c1ccccc1)NC(=O)c1ccco1`, which “activity change, negative = inhibition” value is on record?
The value was inactive: -5.64%.

Which “activity change, negative = inhibition” value does the source give for `O=C(C1=C[C@H](C2CC2)C[C@H](OCCCCO)O1)N1CCOCC1` here?
The value was inactive: 9.41%.

Which “activity change, negative = inhibition” value does the source give for `CCCOc1ccc(C(=O)NNC(=S)NC(=O)c2cc(-c3ccccc3)nc3ccccc23)cc1` here?
Its value is inactive: 41.8%.

For `O=C(CCC1COc2ccccc2O1)Nc1ccc(Cl)cn1` (centres undefined), which Potency is on record?
The Potency was inconclusive [inhibitor, partial curve, poor fit].

How did the Potency turn out when `CCCCCCN=C(C)C1=C(O)C(C(=O)OC)C(C)(C)CC1=O` (centres undefined) was run?
The Potency was inconclusive [inhibitor, single point].

`CCOC(=O)[C@H]1[C@H]2COc3ccc(Br)cc3[C@H]2N2C(=O)CN(Cc3ccc(C)cc3)C(=O)[C@@]12C` was tested. Which Potency did it give?
Its Potency is inconclusive [inhibitor, partial curve, poor fit].

`CCN(CC(=O)Nc1ccc(C)c(S(=O)(=O)N2CCOCC2)c1)Cc1ccccc1` was tested. Which Potency did it give?
Its Potency is inconclusive [inhibitor, single point].

How did the Potency turn out when `COc1ccccc1N1CCN(C(=O)Cn2c(=O)nc(-c3ccccc3)c3ccccc32)CC1` was run?
The Potency was inconclusive [inhibitor, single point].

How did the Potency turn out when `CCOC(=O)C1(CCCc2ccccc2)CCN(C(=O)c2n[nH]c(CC)c2C)CC1` was run?
The Potency was inconclusive [inhibitor, partial curve, poor fit].

`CCC(C(=O)NCCC(C)C)N(C(=O)Cn1nnc(-c2ccc(C)cc2)n1)c1cccc(O)c1` (centres undefined) was tested. Which Potency did it give?
The Potency was inconclusive [inhibitor, single point].

With `Cc1ccc(NC(=O)Cn2c(=O)n(CCC(C)C)c(=O)c3cccnc32)cc1C` as the compound, how does the “activity change, negative = inhibition” value read?
The value was inactive: -17.1%.

With `CC(C)(C)c1ccc(NC(=O)NCc2ccco2)cc1` as the compound, how does the Potency read?
The Potency was inconclusive [inhibitor, single point].

With `COCCOC(=O)N1CCCCC1c1cc(C(=O)NCc2ccc(Cl)c(Cl)c2)no1` (centres undefined) as the compound, how does the Potency read?
Its Potency is inconclusive [inhibitor, single point].

How did the Potency turn out when `COc1ccc(Cl)cc1NC(=O)NC1CCCCC1` was run?
Its Potency is inconclusive [inhibitor, partial curve, poor fit].

How did the Potency turn out when `CC(C)OC(=O)C1C(=O)CC(C)(O)C(C(=O)OC(C)C)C1c1cccc([N+](=O)[O-])c1` (centres undefined) was run?
The Potency was inconclusive [inhibitor, single point].

`c1ccc(OCCNc2nc(NCC3CC3)nc3cc(-c4ccccc4)sc23)cc1` was tested. Which Potency did it give?
The Potency was inconclusive [inhibitor, full curve, poor fit].

With `CC(=O)N1CCN(CC(O)COc2ccc(Br)cc2)CC1` (centres undefined) as the compound, how does the “activity change, negative = inhibition” value read?
The value was inactive: 0.965%.

How did the Potency turn out when `Cc1ccccc1/C=C/C12NC(=O)CN1c1ccccc1C2(C)C` (centres undefined) was run?
Its Potency is inconclusive [inhibitor, partial curve, poor fit].

With `CCCCNC(=S)N/N=C/c1cc(C)ccc1C` as the compound, how does the Potency read?
The Potency was inconclusive [inhibitor, full curve, poor fit].

`CCc1ccccc1NC(=O)NNS(=O)(=O)c1cc(C)ccc1C` was tested. Which “activity change, negative = inhibition” value did it give?
The value was inactive: -26%.

Which Potency does the source give for `CCOC(=O)c1c(C)c(C(=O)Nc2ccc3c(c2)OCCO3)c(C)n1CC` here?
Its Potency is inconclusive [inhibitor, single point].

How did the Potency turn out when `CC(C)NC(=O)N(O)C1N(Cc2ccc3c(c2)OCO3)C(=S)SC1(C)C` (centres undefined) was run?
Its Potency is inconclusive [inhibitor, single point].

How did the Potency turn out when `CCc1ccccc1S(=O)(=O)Cc1ccc(C(=O)N2CCN(c3ccccc3OC)CC2)o1` was run?
Its Potency is inconclusive [inhibitor, partial curve, poor fit].

Which Potency does the source give for `CC(C)OC(=O)c1ccc(NCc2cc(O)ccc2O)cc1` here?
The Potency was inconclusive [inhibitor, single point].

Which Potency does the source give for `Nc1nc(CSC(=S)N2CCN(c3ccccc3)CC2)nc(Nc2ccccc2)n1` here?
The Potency was inconclusive [inhibitor, partial curve, poor fit].

For `CC1CCC2(CC1)NC(=O)N(NC(=O)c1cccc(N(C)C)c1)C2=O` (centres undefined), which Potency is on record?
Its Potency is inconclusive [inhibitor, partial curve, poor fit].

`O=C(OCc1ccccc1)N1CCC2CC1c1cc(NCCc3ccccc3)ccc12` (centres undefined) was tested. Which Potency did it give?
The Potency was active: 11.2 µM.

For `CCN(CC)c1ccc(C(=C2C=CC(=[N+](CC)CC)C=C2)c2ccc(N(CC)CC)cc2)cc1`, which Potency is on record?
The Potency was inconclusive [inhibitor, partial curve, poor fit].

For `C[C@H](NC(=O)c1nc[nH]c1C(=O)N[C@@H](Cc1ccccc1)C(=O)OCc1ccccc1)c1ccccc1`, which Potency is on record?
The Potency was inconclusive [inhibitor, single point].

With `CCCCNC(=O)Nc1nc2ccc(CC)cc2s1` as the compound, how does the Potency read?
The Potency was inconclusive [inhibitor, partial curve, poor fit].

With `O=C(CN1C(=O)COc2ccc(S(=O)(=O)NC3CCCC3)cc21)NCc1ccccc1Cl` as the compound, how does the “activity change, negative = inhibition” value read?
Its value is inactive: -27.4%.

For `COc1ccc(-c2onc(C)c2-c2ccc(C(=O)OC(C)C)o2)c(O)c1`, which Potency is on record?
Its Potency is inconclusive [inhibitor, partial curve, poor fit].

`O=C(CSc1nnc(-c2cccs2)n1-c1ccccc1)NCc1ccc2c(c1)OCO2` was tested. Which Potency did it give?
Its Potency is inconclusive [inhibitor, partial curve, poor fit].

For `CCc1ccc(-c2nc(CN3CCC(C(=O)NCCN(CC)c4ccccc4)CC3)c(C)o2)cc1`, which Potency is on record?
Its Potency is inconclusive [inhibitor, full curve, poor fit].

For `O=C(/C(=C(\O)c1ccccc1)c1nc2ccccc2[nH]1)c1ccccc1`, which Potency is on record?
The Potency was active: 10 µM.

How did the Potency turn out when `CCC(C)NCCCCOc1ccc(Cl)cc1C` (centres undefined) was run?
Its Potency is inconclusive [inhibitor, partial curve].

With `Cc1c([N+](=O)[O-])cnc(Sc2ccccc2)c1[N+](=O)[O-]` as the compound, how does the Potency read?
Its Potency is inconclusive [inhibitor, partial curve, poor fit].

For `Cc1c(Cl)cccc1NC(=O)COC(=O)c1c2c(nc3ccccc13)CCN(Cc1ccccc1)C2`, which Potency is on record?
Its Potency is inconclusive [inhibitor, full curve, poor fit].

`Oc1ccccc1-c1nc(NCC2CCCO2)c2ccccc2n1` (centres undefined) was tested. Which Potency did it give?
Its Potency is inconclusive [inhibitor, partial curve, poor fit].

For `CC(=O)Nc1ccc(/C(C)=N/Nc2nc(Nc3cccc4ccccc34)nc(N3CCOCC3)n2)cc1`, which Potency is on record?
The Potency was active: 2.82 µM.

`CCOC(=O)c1cccc(NC(=O)c2cc(C)nc3c2c(C)nn3-c2ccc(C)cc2)c1` was tested. Which Potency did it give?
The Potency was inconclusive [inhibitor, partial curve, poor fit].

`CCOc1ccccc1/C=C(\C#N)C1=CCCC1` was tested. Which Potency did it give?
The Potency was inconclusive [inhibitor, single point].

How did the Potency turn out when `Cc1cc(C)c2cc(C)c(SCC(=O)NCc3ccco3)nc2c1` was run?
Its Potency is inconclusive [inhibitor, partial curve].

`CC1(C)CC(=O)C(C=NCCN2CCN(CCc3ccccc3)CC2)=C(O)C1` was tested. Which activity change, negative = inhibition did it give?
The activity change, negative = inhibition was inconclusive: -33.8% [inhibitor].

With `Cc1cccc(C)c1NC(=O)CCCn1c(=O)c2cccn2c2ccccc21` as the compound, how does the “activity change, negative = inhibition” value read?
Its value is inactive: 3.46%.

For `COc1ccc(-c2nc(CCNC(=O)c3ccccc3)cs2)cc1OC`, which “activity change, negative = inhibition” value is on record?
The value was inactive: 49.4%.

How did the Potency turn out when `Fc1cccc(NC(=S)NCCc2ccccc2)c1` was run?
The Potency was inconclusive [inhibitor, single point].

How did the “activity change, negative = inhibition” value turn out when `N#Cc1c(-c2ccccc2)cc(-c2ccc3c(c2)OCO3)[nH]c1=O` was run?
Its value is inactive: 6.32%.

`CC1CCN(CC(O)COc2cccc(F)c2)CC1` (centres undefined) was tested. Which “activity change, negative = inhibition” value did it give?
The value was inactive: -8.1%.

For `CCOC(=O)C1=CCN(S(=O)(=O)c2ccc(F)cc2)C1c1cccc(C)c1` (centres undefined), which Potency is on record?
The Potency was inconclusive [inhibitor, single point].

How did the “activity change, negative = inhibition” value turn out when `O=C1C(=O)N(C2CCNCC2)CCN1Cc1ccccc1` was run?
Its value is inactive: -0.193%.

How did the “activity change, negative = inhibition” value turn out when `CSCCC(NC(=O)C1CCC(C)CC1)C(=O)OCC(=O)c1ccc(Cl)cc1` (centres undefined) was run?
The value was inactive: 5.07%.
